The whole screen tested about 50,000 compounds, of which about 800 (1.6%) showed an effect of 50% or more. The list shows a part of the results.
Biological target: Bcl-2-like protein 10 (Homo sapiens) (UniProt Q9HD36)
Assay: Phenotype converters, Bcl-B/TR3 peptide binding displacement, primary biochemical FP (AID 1240);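 note: 0% = Bcl-B with tracer peptide and DMSO and 100% = tracer peptide lacking Bcl-B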
Conditions: GST-Bcl-B / FITC-TR3 peptide fluorescence polarization; stronger effect = higher value; compound at 3.75 mg/L

Sequence of UniProt Q9HD36 (Q9HD36 whole entry, looked up): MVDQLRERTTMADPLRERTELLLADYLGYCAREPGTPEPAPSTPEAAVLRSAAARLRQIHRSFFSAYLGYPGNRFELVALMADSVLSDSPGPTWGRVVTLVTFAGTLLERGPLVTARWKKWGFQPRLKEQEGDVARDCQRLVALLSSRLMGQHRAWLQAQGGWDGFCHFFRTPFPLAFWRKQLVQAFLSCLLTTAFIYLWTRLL

Compound	displacement
COc1ccc(O)c(/C=N/c2ncn[nH]2)c1	-8%
O=C1CC(c2ccccc2)c2c(ccc3ccccc23)O1 (stereo not given)	9.8%
COc1cc(C2SCC(=O)N2Cc2ccco2)ccc1O (stereo not given)	-4.6%
COc1ccc(C2CC(C(F)(F)F)n3ncc(C(=O)NCCc4ccccc4)c3N2)cc1OC (stereo not given)	5.1%
CCCC(=O)Nc1cc(-c2nc3cc(Cl)cc(Cl)c3o2)ccc1C	-1.2%
COc1ccc(Nc2cc(C)nc3c(C)cccc23)cc1	1%
COc1cc(Br)cc(/C=N/N(C)C2=NS(=O)(=O)c3cc([N+](=O)[O-])ccc32)c1OC	-2.4%
COc1ccc(OC)c(S(=O)(=O)NCc2ccc3c(c2)OCO3)c1	-9.4%
COc1ccc(OC)c(NC(=O)/C(=C/c2ccccc2)c2ccccc2)c1	13.2%
Cc1ccc(S(=O)(=O)Nc2cc(Cl)c(O)c(C)c2C)cc1	9.1%
CC(=O)Oc1ccc(-c2cccc(C(=O)OC(C)C)c2)cc1	13.2%
Cc1ccc(S(=O)(=O)N(Cc2ccccc2)c2ccccc2C(=O)NCc2cccnc2)cc1	5.9%
Cc1nc2c(C)cccc2c2c1CC(C(C)(Cl)Br)O2 (stereo not given)	-10.1%
Cc1ccc(COc2ccc3c4c(c(=O)oc3c2)CCC4)cc1	14.6%
CC1=NN(C(=O)c2cccc([N+](=O)[O-])c2)C(O)(c2ccc(Br)cc2)C1 (stereo not given)	12.4%
O=C(NCC1CCCO1)c1ccc(Br)cc1 (stereo not given)	-1.3%
COc1ccc(-n2nc3cc(C)c(NC(=O)c4ccc(C)cc4)cc3n2)cc1	5.5%
N#C/C(=C/c1ccc(Sc2ccccc2)o1)C(=O)Nc1ccccc1	-22.8%
CCn1nnnc1-c1ccc(OC)c(S(=O)(=O)Nc2ccc(F)cc2)c1	6.1%
COc1ccccc1C(=O)Nc1ccccc1[N+](=O)[O-]	-0.4%
O=C(NCCN1CCCC1=O)c1ccccc1	9.1%
CCCOc1ccc(/C=C2N=C(/C=C/c3ccccc3)OC/2=O)cc1OC	166%

Compound	displacement
CC(C)(O)C#Cc1ccc(C(=O)N2CCN(C/C=C/c3ccccc3)CC2)cc1	-5.1%
CC(C)(C)c1ccc(C(=O)NNC(=O)C(=O)N2CCCCC2)cc1	-7%
O=[N+]([O-])c1ccccc1OCCCCCCNCCO	0.3%
Cc1onc(-c2ccccc2Cl)c1C(=O)NCCNc1ccc([N+](=O)[O-])cc1Cl	-2.3%
OCCN(CCO)c1nc2ccccc2[nH]1	1.5%
COCCNC(=O)CN(c1ccc(C(C)C)cc1)S(=O)(=O)c1ccccc1	-7.4%
CC(C)(C)OC(=O)NC(Cc1c[nH]c2ccccc12)C(=O)NCc1ccccc1 (stereo not given)	-5.4%
CCOc1ccc(N2C(=O)CC(Nc3ccc(N4CCCCC4)cc3)C2=O)cc1 (stereo not given)	6.1%
CC1(C)CC(=O)C(C2(O)C(=O)Nc3ccc(Br)cc32)CO1 (stereo not given)	-12.2%
CN(C)c1nc(N(C)C)nc(N2CC(=O)N(N)C2=N)n1	4.5%
CC(C)(C)c1cc(CO)c(O)c(C(C)(C)C)c1	-11.3%
Cc1nnc(N/N=C\c2c(Cl)cccc2Cl)[nH]c1=O	-12.3%
CC(=O)c1ccc2c(c1)C1C=CCC1C(c1ccc(Cl)cc1)N2 (stereo not given)	7.3%
CC1CCCN(C(=O)c2ccc(Cl)cc2)C1 (stereo not given)	5.2%
COc1ccc(-c2cn3cc(C)ccc3n2)cc1Br	11.7%
COc1ccc(S(=O)(=O)Nc2ccc(C)cn2)cc1	7.4%
O=C(c1cccc(Cl)c1)N1N=C(c2ccc(Cl)cc2)CC1(O)C(F)(F)F (stereo not given)	0.8%
Cc1ccc(OCC(=O)NNC(=O)c2ccco2)c(Br)c1	-7.7%
Cc1ccc(-c2nc(N/N=C/c3ccccc3O)c3ccccc3n2)cc1	76.2%
Cc1cc2nc(-c3cc(NC(=S)NC(=O)c4ccccc4Cl)ccc3Cl)oc2cc1C	-1.9%
Cc1ccc(/C(O)=C2\C(=O)C(=O)N(CCCC(=O)O)C2c2ccccc2Cl)cc1 (stereo not given)	3%
COc1ccc(-c2nc(-c3ccc(C)cc3)no2)cc1	0.1%

Compound	displacement
CC(=O)Nc1n[nH]c(-c2ccc(C)cc2)c1C	10.8%
CCOC(=O)c1c(C)n(C)c2ccc(O)c(CN(CC)CC)c12	13.5%
CC(C)c1ccccc1NC(=O)C(c1ccccc1)c1ccccc1	-4.6%
O=C(Nc1ccc(NC(=S)NC(=O)c2ccco2)cc1)c1ccc(Br)cc1	20.1%
COc1ccc(-c2csc(N3C(=O)c4ccc(OC)c(OC)c4C3=O)n2)cc1	-1.9%
Cc1ccc(/C=C/C(=O)Nc2cccc(Cl)c2C)o1	7.8%
CN(C)c1ccc(NC(=O)N2CCOCC2)cc1	4.1%
Cc1cc(C(=O)Nc2ccc(C(=O)O)cc2)c(-c2ccccc2)o1	6.6%
CCOc1ccc(C=Nc2cccc3ncccc23)cc1	-7.1%
O=C(O)c1ccccc1NC1=C(Cl)C(=O)N(c2ccc(Cl)cc2)C1=O	3.8%
Cc1cc(C=O)c(C)n1-c1ccc(Cl)c(Cl)c1	-12%
Cc1ccc(C(=O)Nc2ccccc2C(=O)Nc2ccccn2)cc1	-4.3%
CC(=O)Oc1ccc(C(=O)N2c3ccccc3Sc3ccccc32)cc1	-7.2%
CCCCOc1ccc(NC(=O)C2CC(=O)N(c3ccccc3)C2)cc1 (stereo not given)	-5%
O=C(NC(=S)Nc1ccc2ccccc2c1)c1ccccc1Cl	3.4%
Cc1c(NC(=O)C(Sc2ccccc2)c2ccccc2)c(=O)n(-c2ccccc2)n1C (stereo not given)	0.1%
O=C(O)CC1S/C(=N/N=C/c2ccccc2O)N(c2ccc(O)cc2)C1=O (stereo not given)	15.4%
CCOc1ccc(N2C(=O)/C(=C/c3cccs3)SC2=S)cc1	-3.8%
COCCN1C(=O)C(=O)/C(=C(/O)c2ccccc2)C1c1cccc(OC)c1 (stereo not given)	-10.3%
O=C(NCCc1ccccc1)c1nn2c(c1Br)NC(c1ccccc1)CC2C(F)(F)F (stereo not given)	11.9%
Cc1cc(N2C(=O)c3ccc(Oc4ccc([N+](=O)[O-])cc4)cc3C2=O)no1	12.4%
Cc1ccc(C(=O)Nc2ccc3oc(-c4ccc(F)cc4Cl)nc3c2)cc1[N+](=O)[O-]	12%

Compound	displacement
O=C1N/C(=N/N=C/c2ccco2)SC1Cc1ccc(F)cc1 (stereo not given)	-12.5%
N#Cc1c(/N=C\c2ccc(N3CCCCC3)c([N+](=O)[O-])c2)sc2c1CCCC2	-5.3%
O=c1[nH]c(SCc2ccccc2)nnc1-c1ccccc1	-3.8%
Cc1ccsc1C=NN1CCN(Cc2ccccc2)CC1	-4%
O=C(Nc1cccc([N+](=O)[O-])c1)c1ccc(Br)c(S(=O)(=O)NC2CCCCC2)c1	-15.6%
COc1cc2nc(-c3ccc4c(c3)C(=O)N(c3ccccc3)C4=O)oc(=O)c2cc1OC	-7%
COc1cc(/C=C2\Sc3ccccc3C2=O)cc(OC)c1O	-14.6%
NC(=O)c1ccccc1NC(=O)CCCCC(=O)Nc1ccccc1C(N)=O	-13.4%
COc1ccc(C2NC(c3ccc(OC)cc3)C(c3ccccc3)C(=O)C2c2ccccc2)cc1 (stereo not given)	14.6%
Cc1ccc(C(=O)O)cc1N1C(=O)C2C3C=CC(C3)C2C1=O (stereo not given)	11.8%
COc1ccc(OC)c(C2NC(=O)NC(C)=C2C(=O)Nc2ccccc2C)c1 (stereo not given)	11.9%
C/C(=N\N=C1\NC(=O)C(CC(=O)Nc2ccc(C)c(Cl)c2)S1)c1ccc([N+](=O)[O-])cc1 (stereo not given)	-3.9%
COc1ccc(C(=O)CC(=O)c2ccccc2O)cc1OC	11%
Cc1cc(C)c(NC(=O)Cc2ccccc2[N+](=O)[O-])c(C)c1	11.1%
CC(=O)c1cccc(NC(=O)c2cnn3c(C(F)(F)F)cc(-c4cccs4)nc23)c1	3.1%
CCCc1nnc(NC(=O)CSc2ncn[nH]2)s1	15.3%
O=S(=O)(Nc1ccc(Br)cn1)c1ccc2ccccc2c1	7%
Cc1ccccc1NC1CC(C)N(C(=O)c2ccccc2)c2c(C)cccc21 (stereo not given)	-0.9%
CCC(=O)Nc1nc2ccccc2n1Cc1ccc(Cl)cc1	-23%
O=[N+]([O-])c1cn(Cc2ccc(F)cc2)cn1	1.7%
CCOC(=O)CNC(=O)c1cc(OCC)c(OCC)c(OCC)c1	3.3%
O=C(CC1S/C(=N\N=C\c2ccco2)NC1=O)Nc1ccc(C(=O)O)cc1 (stereo not given)	-0.3%

Compound	displacement
CCOc1ccc(C(NC(=O)Cc2cc(OC)c(OC)cc2Br)c2ccc(OC)cc2)cc1 (stereo not given)	-13.1%
COc1ccc(-c2cc(C(=O)Nc3ccc(F)c([N+](=O)[O-])c3)c3ccccc3n2)cc1OC	6.6%
CCc1ccccc1NC(=O)C(=O)NCCCO	-12.4%
O=C(Nc1nnc(Cc2ccc(Cl)cc2)s1)c1ccccc1F	12.1%
CCCNC(=S)Nc1c(C)n(C)n(-c2ccccc2)c1=O	2.5%
COC(=O)c1ccccc1NC(=O)Cn1c(SC)nc2ccccc21	8.3%
CC1=NN(c2ccccc2)C(=O)/C1=C\c1cc([N+](=O)[O-])ccc1N(C)C	10.6%
CCc1ccccc1NC(=O)c1cc(-c2ccc(C)s2)nc2ccccc12	-7.3%
O=C(CSc1nnnn1-c1ccccc1)NCc1ccccc1	2.6%
O=C(O)CN1C(=O)/C(=C\c2ccccc2Cl)SC1=S	5%
COc1cccc(C2NC(=S)NC(C)=C2C(=O)Nc2ccccc2)c1 (stereo not given)	0.4%
Cc1ccc(C(=O)Nc2ccc(S(=O)(=O)N3CCCC3)cc2)cc1	12.3%
COc1cc(C=NN2C(=O)C3C4C=CC(C5CC45)C3C2=O)cc(Br)c1O (stereo not given)	-11%
CCOc1ccc(CN2CCN(C(=O)CC(C)C)CC2)cc1	11.9%
O=Cc1cccc(OCc2c(F)cccc2Cl)c1	-2.4%
COc1ccc(C2=NN(C(=O)CCC(=O)O)C(c3ccc(OC)cc3)C2)cc1 (stereo not given)	-11.7%
O=C1C2C3C=CC(C4CC34)C2C(=O)N1c1cccc(Cl)c1 (stereo not given)	2.7%
Cc1cccc(C2=N/C(=C/c3ccc([N+](=O)[O-])cc3)C(=O)N2c2ccc(O)cc2)c1	10.3%
Cc1ccc(-n2nc3ccc(NC(=O)c4ccc([N+](=O)[O-])cc4Cl)cc3n2)cc1	3.2%
Cc1cccc(OCC(=O)Nc2ccc(OCc3ccccc3)cc2)c1C	11.4%
C=CCN1C(=O)/C(=C\c2ccc(-c3ccc(C(=O)OCC)cc3)o2)SC1=S	90.3%
CCN(CC)c1ccc(/C=C/C(=O)c2ccc(NC(C)=O)cc2)cc1	-58.9%

Reference: PubChem BioAssay AID1240 (Sanford-Burnham Center for Chemical Genomics, 2008)
